The supplement of paper PMC3334620
Whole data set: some 33,000 sequences, median “E-score (-0.5 to 0.5)” near -0.043, cut for the highest 2% near 0.37. The list shows a part of the results.

molecular target: T1, Upc2 (UniProt Q12151); test: PBM E-score (8-mer binding enrichment) (E-score (-0.5 to 0.5)); higher = stronger / more preferred TF binding; most listed sequences are background and not binding sites; settings: protein concentration: 200 nM; construct: GST-full length
T1 sequence: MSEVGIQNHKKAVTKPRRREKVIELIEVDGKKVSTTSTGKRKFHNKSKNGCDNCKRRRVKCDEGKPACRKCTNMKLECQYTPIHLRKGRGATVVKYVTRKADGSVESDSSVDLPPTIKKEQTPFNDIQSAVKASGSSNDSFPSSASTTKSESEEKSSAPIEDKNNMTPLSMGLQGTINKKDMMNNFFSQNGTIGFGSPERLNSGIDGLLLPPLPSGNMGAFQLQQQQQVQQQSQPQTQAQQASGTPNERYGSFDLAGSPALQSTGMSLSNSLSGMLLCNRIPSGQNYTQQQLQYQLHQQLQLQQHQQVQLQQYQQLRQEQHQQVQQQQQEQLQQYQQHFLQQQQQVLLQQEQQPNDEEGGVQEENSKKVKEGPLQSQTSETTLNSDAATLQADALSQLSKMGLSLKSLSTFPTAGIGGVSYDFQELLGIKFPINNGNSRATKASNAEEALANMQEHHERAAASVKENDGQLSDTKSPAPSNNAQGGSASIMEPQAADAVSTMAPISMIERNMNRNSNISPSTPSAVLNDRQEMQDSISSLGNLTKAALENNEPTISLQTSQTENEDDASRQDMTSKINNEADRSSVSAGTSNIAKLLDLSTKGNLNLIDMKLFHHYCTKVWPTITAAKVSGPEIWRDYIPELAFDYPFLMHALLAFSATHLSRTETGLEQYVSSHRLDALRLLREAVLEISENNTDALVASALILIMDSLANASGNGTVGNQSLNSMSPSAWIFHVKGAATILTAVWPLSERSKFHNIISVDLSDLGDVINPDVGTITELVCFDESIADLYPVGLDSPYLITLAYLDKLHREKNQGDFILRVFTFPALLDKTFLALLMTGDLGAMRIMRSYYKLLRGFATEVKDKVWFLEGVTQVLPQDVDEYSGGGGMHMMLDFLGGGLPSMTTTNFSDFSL
Outline: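 Full-length yeast transcription factors or their DNA-binding domains, GST-tagged and expressed with PURExpress, were applied at about 100-200 nM to universal all-10-mer Agilent arrays. These arrays had been made double-stranded by primer extension on fresh or once-stripped slides. Detection used fluorescent anti-GST, normalisation used masliner, and E-scores for ungapped eight-base words pooled with reverse complements came from the Universal PBM Analysis Suite.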

Row | Sequence | PBM E-score
1 | TATGTAAA | 0.103
2 | ATCATCAG | -0.107
3 | AGTATCAA | -0.1
4 | CCGCTTCG | -0.0227
5 | CGGTTGGA | -0.0446
6 | AACAAGCA | -0.192
7 | TACGACAA | 0.46
8 | CGCGTACC | 0.302
9 | ACCACTCC | -0.131
10 | ACAGGTAT | 0.165
11 | AGAAGATG | -0.101
12 | AGCCTTTA | 0.0736
13 | GTGCGAAC | 0.0898
14 | ATCGCGGA | -0.171
15 | CTACAGTC | -0.112
16 | ACATAACG | 0.116
17 | CCCCGTGC | 0.0447
18 | CCTTTATA | -0.135
19 | ACGCACGT | 0.144
20 | ACGATAGA | 0.309
21 | CCATGTTC | -0.0966
22 | AGATCCGG | -0.135
23 | AAAAGAAT | 0.115
24 | GACGCGAA | -0.0143
25 | CTGCAGTA | -0.189

Row | Sequence | PBM E-score
26 | TCTAAAAA | -0.0868
27 | ACCTTTTC | -0.129
28 | GTTTGACA | 0.201
29 | CCCGCCGC | 0.114
30 | TGAAAGAA | 0.00635
31 | ATTTGCGA | 0.214
32 | CCTCCACG | -0.131
33 | AAGGGGAG | -0.157
34 | CGGGTAGA | 0.113
35 | CATCACCA | -0.152
36 | ACCAGTGA | -0.105
37 | GAATTGAA | 0.0546
38 | CTAGCCTC | -0.0793
39 | AATCGGAC | -0.0267
40 | CCACTGTA | 0.0804
41 | ACTGAGCG | 0.0165
42 | GGCGTGAA | -0.00201
43 | CAGCGGCA | -0.195
44 | GCGTATCA | 0.182
45 | AAGTCCAC | -0.286
46 | TGACAGCA | 0.00022
47 | ACGACGTG | 0.351
48 | CACACTAG | -0.125
49 | GGCTACAA | -0.0568
50 | ACGAATGA | 0.354

Row | Sequence | PBM E-score
51 | CGACTTGA | 0.0465
52 | AACTCCTC | -0.0652
53 | GCGGCATA | 0.129
54 | GTTCAAGA | 0.144
55 | GCCTACCC | -0.232
56 | ATCGGAAA | 0.0523
57 | GCCCTACC | -0.19
58 | CCGCCGTC | -0.125
59 | ATGGAGCA | -0.0645
60 | ATGGTGGG | -0.278
61 | CGCGCAGA | 0.131
62 | TACTTACA | 0.092
63 | TAATGAAA | 0.119
64 | AGGACATC | 0.0709
65 | CAGGCGAG | -0.229
66 | AACTCTCG | 0.0165
67 | TGTGCTAA | -0.0229
68 | GGACTTTA | -0.0205
69 | AACCTTAG | -0.219
70 | GGACCCGA | -0.0888
71 | GTGACAAA | 0.0143
72 | TAAATACA | 0.122
73 | TCGTGAAA | 0.237
74 | ACCAACGG | -0.115
75 | AGCGGTTG | -0.0212

Row | Sequence | PBM E-score
76 | CGGCAGAC | -0.105
77 | AGCAGGGG | -0.215
78 | ATGGTGCC | -0.111
79 | CCCCGCCA | 0.141
80 | AGTATGCG | 0.14
81 | CAGTTATG | -0.106
82 | AGGCGTCG | 0.174
83 | AAATAATA | 0.0878
84 | AACGTGCT | -0.0916
85 | GCACCCGA | 0.0742
86 | AGACTTAT | -0.0768
87 | GAACTCAA | -0.116
88 | CTGTGCTC | 0.00992
89 | AATTTTGT | 0.0987
90 | AGCACGAC | -0.0183
91 | AATTCAGC | -0.0307
92 | ATCCTGGC | -0.125
93 | CACAGTCC | -0.241
94 | GCACTAAC | 0.0151
95 | GAAAGGGA | -0.154
96 | AGCGGCTG | -0.183
97 | AACAATCT | -0.137
98 | AAGGTAAA | 0.168
99 | CGCGTCGC | -0.00842
100 | ACCATTAT | -0.192

Row | Sequence | PBM E-score
101 | TGACATAA | -0.0817
102 | CACGATGG | 0.0566
103 | AATGCGAG | 0.208
104 | GCACCTAA | -0.00731
105 | AGTCGGTG | -0.217
106 | TATTAACA | 0.14
107 | AGAAGTGG | -0.0803
108 | ACATGTAT | -0.00552
109 | CGCCCTCA | -0.153
110 | CGCAAGCA | -0.0774
111 | AGATGACC | -0.302
112 | ATGAAGGC | -0.0722
113 | CTTAACCA | -0.0796
114 | ACGCGAAT | 0.243
115 | GGACTAGA | -0.223
116 | AACTTCTT | 0.0405
117 | CATGTGAC | -0.248
118 | AACATAGA | -0.147
119 | ACCGCAGG | -0.151
120 | GCCTTCGC | -0.106
121 | CGTGCGAA | 0.214
122 | CCATATCC | -0.119
123 | AGGGCGAT | -0.00906
124 | TATATACA | 0.0785
125 | ACCCGGCG | 0.0259

Row | Sequence | PBM E-score
126 | AGCAGACT | -0.026
127 | ACCCAAAA | 0.115
128 | CAAGGCAA | -0.194
129 | GGTACGTA | 0.313
130 | ATAGGTCA | 0.153
131 | AGGGGGTG | -0.227
132 | CGCCTGAA | 0.0954
133 | GAATTTAC | 0.204
134 | ACAATGAC | -0.131
135 | CTATTTCC | 0.0751
136 | CAGACTGA | -0.0971
137 | CACACCCC | -0.261
138 | ACATACGT | 0.239
139 | AATAACTG | 0.0722
140 | GCTCGAGC | 0.15
141 | ACAGGCTG | -0.153
142 | ACGGGAAA | 0.0455
143 | GACAAGGC | -0.0207
144 | GCGCGGCA | 0.123
145 | TACCGTAA | 0.252
146 | GCTATCGA | -0.0199
147 | AAAGGGTC | 0.00092
148 | AGGGCACG | -0.0167
149 | GTAGTCCA | -0.206
150 | CTCCTCAC | -0.083

Row | Sequence | PBM E-score
151 | CTCAATAA | -0.213
152 | AGTCCAAT | -0.149
153 | TCAACACA | -0.0099
154 | ATACGTTA | 0.302
155 | AACGATAG | 0.404
156 | CTAGCCCC | -0.237
157 | ATCAGAGC | -0.0158
158 | GCACTAGA | -0.157
159 | CCTCGTGC | 0.0326
160 | CCTCGGAA | 0.228
161 | CAAGCGAC | 0.169
162 | GCTTAGCA | -0.00347
163 | ACTCATAG | -0.257
164 | GATGAACA | -0.0877
165 | CTTGTTTC | 0.033
166 | ATCTTCAT | 0.00644
167 | ACCCTCTA | -0.153
168 | ACATGGAT | -0.22
169 | AACTGCGT | 0.0942
170 | CATCTTTA | 0.111
171 | AAAATTAT | 0.0354
172 | ATAGTCCC | -0.333
